# Measured values: the supplement of paper PMC12217912
# The list shows a part of the results. The full chains were built here from the parent and the listed change. Inactive controls read about 0.05.
# B1: TEV protease; numbered along this chain (parent)
# chain: MGESLFKGPRDYNPISSSICHLTNESDGHTTSLYGIGFGPFIITNKHLFRRNNGTLVVQSLHGVFKVKDTTTLQQHLVDGRDMIIIRMPKDFPPFPQKLKFREPQREERICLVTTNFQTKSMSSMVSDTSCTFPSGDGIFWKHWIQTKDGQCGSPLVSTRDGFIVGIHSASNFTNTNNYFTSVPKNFMELLTNQEAQQWVSGWRLNADSVLWGGHKVFMVKPEEPFQPVKEATQL
# Variants of: B1
# Assay: raw area under fraction-flipped curve 0-4 h after induction (AUC4h, not background-subtracted), DNA-recorder readout of cleavage of the substrate (dimensionless); higher = more cleavage of the substrate by the protease variant
# Conditions: temperature: 34 °C; time window: 0-4 h after rhamnose induction
# 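Further: Bxb1 expression induced with 0.2% (w/v) L-rhamnose at OD600 near 0.5, cultures sampled hourly, flipped fraction per protease–substrate barcode pair counted by paired-end Illumina sequencing.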
Variant,area with substrate EDLYFQS,area with substrate EKLYFQS,area with substrate EPLYFQS,area with substrate ERLYFQS,area with substrate EVLYFQS,area with substrate EWLYFQS,area with substrate ESLYFQS,area with substrate ETLYFQS,area with substrate EYLYFQS,area with substrate EILYFQS
MGESLFKGPRDYNPISSSICHLTNESDGHTTSLYGIGFGPFIITNKHLFRRNNGTLVVQSLHGVFKVKDTTTLQQHLVDGRDMIIIRMPKDFPPFPQKLKFREPQREERICLVTTNFQTKSMSSMVSDTSCTFPSGDGIFWKHWIQTFDGQCGSPLVSTRDGFIVGIHSASNFTNTNNYFTSVPKNFMELLTNQEAQQWVSGWRLNADSVLWGGHKVFMVKPEEPFQPVKEATQL [K148F],0.109,0.101,0.104,0.0615,0.103,0.105,,,,
MGESLFKGPRDYNPISSSICHLTNESDGHTTSLYGIGFGPFIITNKHLFRRNNGTLVVQDLHGVFKVKDTTTLQQHLVDGRDMIIIRMPKDFPPFPQKLKFREPQREERICLVTTNFQTKSMSSMVSDTSCTFPSGDGIFWKHWIQTKDGQCGSPLVSTRDGFIVGIHSASNFTNTNNYFTSVPKNFMELLTNQEAQQWVSGWRLNADSVLWGGHKVFMVKPEEPFQPVKEATQL [S60D],0.0758,,0.104,0.107,0.0826,,0.0897,0.0727,0.0866,
MGESLFKGPRDYNPISSSICHLTNESDGHTTSLYGIGFGPFIITNKHLFRRNNGTLVVQSLHGVFKVKDTTTLQQHLVDGRDMIIIRMPKDFPPFPQKLKFREPQREERICLVTTNFQTKSMSSMVSDTSCTFPSGDGIFWKHWIQTKDGQCGSPLVSTRDGFIVGIHSASNFTNTNNYFTSVPKEFMELLTNQEAQQWVSGWRLNADSVLWGGHKVFMVKPEEPFQPVKEATQL [N186E],0.122,,,0.0852,0.105,,0.111,,0.136,0.106
MGESLFKGPRDYNPISSSICHLTNESDGHTTSLGGIGFGPFIITNKHLFRRNNGTLVVQSLHGVFKVKDTTTLQQHLVDGRDMIIIRMPKDFPPFPQKLKFREPQREERICLVTTNFQTKSMSSMVSDTSCTFPSGDGIFWKHWIQTKDGQCGSPLVSTRDGFIVGIHSASNFTNTNNYFTSVPKNFMELLTNQEAQQWVSGWRLNADSVLWGGHKVFMVKPEEPFQPVKEATQL [Y34G],0.139,,,0.0864,,0.0788,,,0.0852,0.0984
MGESLFKGPRDYNPISSSICHLTNESDGHTTSLYGIGFGPFIITNKHLFRRNNGTLVVQSLHGVFKVKDTTTLQQHLVDGRDMIIIRMPKDFPPFPQKLKFREPQREERICLVTTNFQTKSMSSMVSDTSCTFPSGDGIFWKHWIQTKDGQCGSPLVSTRDGFIVGIHSASNFTNTNNYFTSVPKNFMELLTNQEAQQWVSGWRLNADSVLWGGHKVFMVKPEEPFQPVKEATHL [Q234H],,,0.133,,,,0.127,,0.113,0.0285
MGESLFKGPRDYNPISSSICHLTNESDGHTTSLYGIGFGPFIITNKHLFRRNNGTLVVQSLHGVFKVKDTTTLQQHLVDGRDMIIIRMPKDFPPFPQKLKFREPQREERICLVTTNFQTKSMSSMVSDTSCTFPSGDGIFWKHWIQTKDGQCGSPLVSTRDGFIVGIHSASNFTNTNNYFTSVPKNFMELLTNQEAQQWVSGWRLNADSVLWGGHKVFMVKYEEPFQPVKEATQL [P222Y],0.0929,0.107,0.0907,0.0691,,0.082,,,0.0888,0.0858
MGESLFKGPRDYNPISSSICHLTNESDGHTTSLYGIGFGPFIITNKHLFRRNNGTLVVQSLHGVFKVKDTTTLQQHLVDGRDMIIIRMPKDFPPFPQKLKFREPQREERICLVTTNFQTKSMSSMVSDTSCTFPSGDGIAWKHWIQTKDGQCGSPLVSTRDGFIVGIHSASNFTNTNNYFTSVPKNFMELLTNQEAQQWVSGWRLNADSVLWGGHKVFMVKPEEPFQPVKEATQL [F140A],0.055,0.0668,0.0642,,,,0.0627,,,
MGESLFKGPRDYNPISSSICHLTNESDGHTTSLYGIGFGPFIITNKHLFRRNNGTLVVQSLHGVFKVKDTTTLQQHLVDGRDMIIIRMPLDFPPFPQKLKFREPQREERICLVTTNFQTKSMSSMVSDTSCTFPSGDGIFWKHWIQTKDGQCGSPLVSTRDGFIVGIHSASNFTNTNNYFTSVPKNFMELLTNQEAQQWVSGWRLNADSVLWGGHKVFMVKPEEPFQPVKEATQL [K90L],0.113,0.103,,0.0967,0.0886,0.0851,0.111,0.165,,0.0967
MGESLFKGPRDYNPISSSICHLTNESDGHTTSLYGIGFGPFIITNKHLFRRNNGTLVVQSLHGVFKVKDTTTLQQHLVDGRDMIIIRMPKDFPPFPQKLKFREPQREERICLVTTNFQTKSMSSMVSDTSCTFPSGDGIFWKHWIQTKDGQCGSPLVSTRDGFIVGIHSASNFTNTNNYFTSVPKNFMELLTNQEAQQWVSGWRLNADSVLWGGHKVFMVDPEEPFQPVKEATQL [K221D],,0.0965,,0.0739,0.0667,,0.0919,,,0.0814
MGESLFKGPRDYNPISSSICHLTNESDGHTTSLYGIGFGEFIITNKHLFRRNNGTLVVQSLHGVFKVKDTTTLQQHLVDGRDMIIIRMPKDFPPFPQKLKFREPQREERICLVTTNFQTKSMSSMVSDTSCTFPSGDGIFWKHWIQTKDGQCGSPLVSTRDGFIVGIHSASNFTNTNNYFTSVPKNFMELLTNQEAQQWVSGWRLNADSVLWGGHKVFMVKPEEPFQPVKEATQL [P40E],0.13,0.132,,0.153,,0.153,0.122,0.158,,0.138

# Same assay, conditions: temperature: 34 °C; time window: 0-4 h after rhamnose induction
Variant,area with substrate EMLYFQS,area with substrate EQLYFQS,area with substrate EFLYFQS,area with substrate ECLYFQS,area with substrate EHLYFQS,area with substrate EELYFQS,area with substrate EGLYFQS,area with substrate ELLYFQS
MGESLFKGPRDYNPISSSICHLTNESDGHTTSLYGIGFGPFIITNKHLFRRNNGTLVVQSLHGVFKVKDTTTLQQHLVDGRDMIIIRMPKDFPPFPQKLKFREPQREERICLVTTNFQTKSMSSMVSDTSCTFPSGDGIFWKHWIQTKDGQCGSPLVSTRDGFIVGIHSASNFTNTNNYFTSVPKEFMELLTNQEAQQWVSGWRLNADSVLWGGHKVFMVKPEEPFQPVKEATQL [N186E],0.134,0.107,,,,,,
MGESLFKGPRDYNPISSSICHLTNESDGHTTSLGGIGFGPFIITNKHLFRRNNGTLVVQSLHGVFKVKDTTTLQQHLVDGRDMIIIRMPKDFPPFPQKLKFREPQREERICLVTTNFQTKSMSSMVSDTSCTFPSGDGIFWKHWIQTKDGQCGSPLVSTRDGFIVGIHSASNFTNTNNYFTSVPKNFMELLTNQEAQQWVSGWRLNADSVLWGGHKVFMVKPEEPFQPVKEATQL [Y34G],0.085,,0.111,,,,,
MGESLFKGPRDYNPISSSICHLTNESDGHTTSLYGIGFGPFIITNKHLFRRNNGTLVVQSLHGVFKVKDTTTLQQHLVDGRDMIIIRMPKDFPPFPQKLKFREPQREERICLVTTNFQTKSMSSMVSDTSCTFPSGDGIFWKHWIQTKDGQCGSPLVSTRDGFIVGIHSASNFTNTNNYFTSVPKNFMELLTNQEAQQWVSGWRLNADSVLWGGHKVFMVKPEEPFQPVKEATHL [Q234H],,0.111,,0.103,0.131,,,
MGESLFKGPRDYNPISSSICHLTNESDGHTTSLYGIGFGPFIITNKHLFRRNNGTLVVQSLHGVFKVKDTTTLQQHLVDGRDMIIIRMPKDFPPFPQKLKFREPQREERICLVTTNFQTKSMSSMVSDTSCTFPSGDGIFWKHWIQTKDGQCGSPLVSTRDGFIVGIHSASNFTNTNNYFTSVPKNFMELLTNQEAQQWVSGWRLNADSVLWGGHKVFMVKYEEPFQPVKEATQL [P222Y],0.104,0.0965,,,,0.102,0.0716,
MGESLFKGPRDYNPISSSICHLTNESDGHTTSLYGIGFGPFIITNKHLFRRNNGTLVVQSLHGVFKVKDTTTLQQHLVDGRDMIIIRMPKDFPPFPQKLKFREPQREERICLVTTNFQTKSMSSMVSDTSCTFPSGDGIAWKHWIQTKDGQCGSPLVSTRDGFIVGIHSASNFTNTNNYFTSVPKNFMELLTNQEAQQWVSGWRLNADSVLWGGHKVFMVKPEEPFQPVKEATQL [F140A],,,,,0.0548,0.0607,,
MGESLFKGPRDYNPISSSICHLTNESDGHTTSLYGIGFGPFIITNKHLFRRNNGTLVVQSLHGVFKVKDTTTLQQHLVDGRDMIIIRMPLDFPPFPQKLKFREPQREERICLVTTNFQTKSMSSMVSDTSCTFPSGDGIFWKHWIQTKDGQCGSPLVSTRDGFIVGIHSASNFTNTNNYFTSVPKNFMELLTNQEAQQWVSGWRLNADSVLWGGHKVFMVKPEEPFQPVKEATQL [K90L],0.111,0.116,0.103,,,0.0948,0.132,0.0995
MGESLFKGPRDYNPISSSICHLTNESDGHTTSLYGIGFGPFIITNKHLFRRNNGTLVVQSLHGVFKVKDTTTLQQHLVDGRDMIIIRMPKDFPPFPQKLKFREPQREERICLVTTNFQTKSMSSMVSDTSCTFPSGDGIFWKHWIQTKDGQCGSPLVSTRDGFIVGIHSASNFTNTNNYFTSVPKNFMELLTNQEAQQWVSGWRLNADSVLWGGHKVFMVDPEEPFQPVKEATQL [K221D],0.0846,0.103,0.101,0.0901,,,0.0589,
MGESLFKGPRDYNPISSSICHLTNESDGHTTSLYGIGFGEFIITNKHLFRRNNGTLVVQSLHGVFKVKDTTTLQQHLVDGRDMIIIRMPKDFPPFPQKLKFREPQREERICLVTTNFQTKSMSSMVSDTSCTFPSGDGIFWKHWIQTKDGQCGSPLVSTRDGFIVGIHSASNFTNTNNYFTSVPKNFMELLTNQEAQQWVSGWRLNADSVLWGGHKVFMVKPEEPFQPVKEATQL [P40E],0.129,,,,,0.134,,0.0949
